Seven molecules from PMC6503469, “The Use of Molecular Descriptors To Model Pharmaceutical Uptake by a Fish Primary Gill Cell Culture Epithelium” (Environmental Science & Technology, 2018) can be followed below.

The structures appear in SMILES notation. Structures can show the parent of a compound that is named as a salt.

The subject of the first data set is fish primary gill cell culture epithelium (FIGCS). Particulars: Table S3; 1 μg mL^–1 in apical freshwater, 24 h.
`CC(C)Cc1ccc(C(C)C(=O)O)cc1` (centres unmarked) [ibuprofen, ibuprofen sodium salt] showed a Rate of 0.07183 nmoles cm-2 hour-1.

The data set is the same for the next values; noted with them: rainbow trout (Oncorhynchus mykiss), 24 h, 1 μg mL^–1, pH 7.6.
For `NC(=O)N1c2ccccc2C=Cc2ccccc21` [carbamazepine], the Rate is reported as 0.02158 nmoles cm-2 hour-1 and the uptake rate came out at 0.022 ± 0.004 nmol cm^–2 h^–1.
With `Cc1ccc(C)c(OCCCC(C)(C)C(=O)O)c1` [gemfibrozil], the Rate is given as 0.07986 nmoles cm-2 hour-1 and the uptake rate is reported as 0.075 ± 0.007 nmol cm^–2 h^–1.
`CC(C)Cc1ccc(C(C)C(=O)O)cc1` (centres unmarked) [ibuprofen, ibuprofen sodium salt]: the uptake rate is recorded as 0.072 ± 0.013 nmol cm^–2 h^–1.
For `O=C(O)Cc1ccccc1Nc1c(Cl)cccc1Cl` [diclofenac, diclofenac sodium salt], the Rate was determined as 0.02677 nmoles cm-2 hour-1 and the uptake rate is reported as 0.027 ± 0.003 nmol cm^–2 h^–1.
For `CC(=O)Nc1nnc(S(N)(=O)=O)s1` [acetazolamide] the same measures were 0.125 nmoles cm-2 hour-1 and 0.125 ± 0.032 nmol cm^–2 h^–1.
For `C#C[C@]1(O)CC[C@H]2[C@@H]3CCC4=CC(=O)CC[C@@H]4[C@H]3CC[C@@]21C` [norethindrone, norethindrone-19], in that order: 0.0244 nmoles cm-2 hour-1 and 0.024 ± 0.003 nmol cm^–2 h^–1.
For `CC(C)NCC(O)COc1cccc2ccccc12` (centres unmarked) [propranolol, propranolol hydrochloride] the same measures were 0.09507 nmoles cm-2 hour-1 and 0.095 ± 0.026 nmol cm^–2 h^–1.
